# Results: the supplement of paper PMC9938546
# Where a name gives a salt, the structure may show the parent alone. The list shows a part of the results. Repeats are few or missing, and single values can be far off.
# Tested on: HCT116-GFP
# Test: HCT116-GFP viability (GFP intensity) relative to untreated control, monoculture; higher = less cancer cell killing
# Details: culture: HCT116-GFP monoculture; 10 µM; 72 h
# 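Further: viability estimated indirectly by image-based GFP quantification with live-cell imaging of the constitutively GFP-expressing human colorectal cancer line, no immune cells added.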
row,Structure (SMILES),HCT116-GFP viability
1,C[C@]12CCC(=O)C=C1CC[C@@H]1[C@@H]2C(=O)C[C@@]2(C)[C@H]1CC[C@]2(O)C(=O)CO [Cortisone],104%
2,CC(=O)[C@@]12O[C@](C)(c3ccccc3)O[C@@H]1C[C@H]1[C@@H]3CCC4=CC(=O)CC[C@]4(C)[C@H]3CC[C@@]12C [Algestone acetophenide],53.8%
3,C[C@H](N[C@@H](CCc1ccccc1)C(=O)O)C(=O)N1CCC[C@H]1C(=O)O [Enalaprilat dihydrate],104%
4,CN(C)[C@@H]1C(O)=C(C(N)=O)C(=O)[C@@]2(O)C(O)=C3C(=O)c4c(O)cccc4[C@@](C)(O)[C@H]3C[C@@H]12 [Tetracycline hydrochloride],94.7%
5,CS(=O)(=O)c1ccc([C@@H](O)[C@@H](CF)NC(=O)C(Cl)Cl)cc1 [Florfenicol],76.3%
6,CCN(CC)CCCC(C)Nc1ccnc2cc(Cl)ccc12 (stereo not drawn) [Chloroquine diphosphate],115%
7,C=C(CC)C(=O)c1ccc(OCC(=O)O)c(Cl)c1Cl [Ethacrynic acid],102%
8,Nc1ccc(S(=O)(=O)NC(=O)c2ccccc2)cc1 [Sulfabenzamide],94.4%
9,CCCCCN(C)CCC(O)(P(=O)(O)O)P(=O)(O)O [Ibandronate sodium],102%
10,O=C1NCCN1c1ncc([N+](=O)[O-])s1 [Niridazole],93.4%
11,C1N2CN3CN1CN(C2)C3 [Methenamine],94.9%
12,CNc1ncnc2c1ncn2[C@@H]1O[C@H](CO)[C@@H](O)[C@H]1O [N6-methyladenosine],115%
13,"OCC(O)CN1CCN(c2ccccc2)CC1 (racemic) [Dropropizine (R,S)]",111%
14,CC(C)(C)C(=O)OCOC(=O)[C@@H]1N2C(=O)[C@@H](/N=C/N3CCCCCC3)[C@H]2SC1(C)C [Pivmecillinam hydrochloride],82.5%
15,c1ccc2c(c1)CCCC2C1=NCCN1 (stereo not drawn) [Tetrahydrozoline hydrochloride],101%
16,C[C@@H](O)[C@H]1C(=O)N2C(C(=O)O)=C(SCCNC=N)C[C@H]12 [Imipenem],83.8%
17,CC(=O)OCC(=O)NCCCOc1cccc(CN2CCCCC2)c1 [Roxatidine Acetate hydrochloride],106%
18,CCn1cc(C(=O)O)c(=O)c2cc(F)c(N3CCNCC3)nc21 [Enoxacin],108%
19,CCCc1ncc(C[n+]2ccccc2C)c(N)n1 [Amprolium hydrochloride],110%
20,Oc1ccc(C2CNCCc3c2cc(O)c(O)c3Cl)cc1 (stereo not drawn) [Fenoldopam],109%
21,CC(C(=O)O)c1cccc(Oc2ccccc2)c1 (stereo not drawn) [Fenoprofen calcium salt dihydrate],110%
22,CCN(CC)CCCC(C)Nc1c2ccc(Cl)cc2nc2ccc(OC)cc12 (stereo not drawn) [Quinacrine dihydrochloride hydrate],60%
23,CCCCCCCCCCCCCCCC[N+](C)(C)CCN(Cc1ccc(OC)cc1)c1ncccn1 [Thonzonium bromide],0.157%
24,C#C[C@]1(O)CC[C@H]2[C@@H]3CCc4cc(OC)ccc4[C@H]3CC[C@@]21C [Ethynylestradiol 3-methyl ether],93.6%
25,CC(C)NCC(O)c1ccc(NS(C)(=O)=O)cc1 (stereo not drawn) [Sotalol hydrochloride],89%

row,Structure (SMILES),HCT116-GFP viability
1,CN(CCOc1ccc(NS(C)(=O)=O)cc1)CCc1ccc(NS(C)(=O)=O)cc1 [Dofetilide],110%
2,CC(=O)N1CCN(c2ccc(OCC3COC(Cn4ccnc4)(c4ccc(Cl)cc4Cl)O3)cc2)CC1 (stereo not drawn) [Ketoconazole],70.3%
3,CCOC(=O)Nc1ccc2c(c1)N(C(=O)CCN1CCOCC1)c1ccccc1S2 [Moricizine hydrochloride],96.8%
4,CC(C)C[C@H](NC(=O)[C@@H](O)[C@H](N)Cc1ccccc1)C(=O)O [Ubenimex],95%
5,CNC(=C[N+](=O)[O-])NCCSCc1ccc(CN(C)C)o1 [Ranitidine hydrochloride],107%
6,COC(=O)[C@H]1[C@H]2C[C@@H]3c4[nH]c5cc(OC)ccc5c4CCN3C[C@H]2C[C@@H](OC(=O)c2cc(OC)c(OC)c(OC)c2)[C@@H]1OC [Reserpine],79.2%
7,CC(=O)O[C@]1(C(C)=O)CC[C@H]2[C@@H]3C=C(C)C4=CC(=O)CC[C@@H]4[C@H]3CC[C@@]21C [Nomegestrol acetate],92.3%
8,O=C1C(CC[S+]([O-])c2ccccc2)C(=O)N(c2ccccc2)N1c1ccccc1 (stereo not drawn) [Sulfinpyrazone],105%
9,NS(=O)(=O)c1cc2c(cc1Cl)N=C(CSCc1ccccc1)NS2(=O)=O [Benzthiazide],99.8%
10,CC(=O)Oc1cc(C(F)(F)F)ccc1C(=O)O [Triflusal],90.4%
11,CC(C)Cc1ccc([C@H](C)C(=O)O)cc1 [S-(+)-ibuprofen],101%
12,CS(=O)(=O)c1ccc([C@@H](O)[C@@H](CO)NC(=O)C(Cl)Cl)cc1 [Thiamphenicol],78.2%
13,O=c1[nH]cc(F)c(=O)[nH]1 [5-fluorouracil],22.1%
14,C[C@]12C=CC(=O)C=C1CC[C@@H]1[C@@H]2[C@@H](O)C[C@@]2(C)[C@H]1CC[C@]2(O)C(=O)CO [Prednisolone],107%
15,CN1CCN(CCCN2c3ccccc3Sc3ccc(S(=O)(=O)N(C)C)cc32)CC1 [Thioproperazine dimesylate],86.8%
16,O=C(O)Cc1ccccc1Nc1c(Cl)cccc1Cl [Diclofenac sodium],92%
17,C[C@@H](c1ncncc1F)[C@](O)(Cn1cncn1)c1ccc(F)cc1F [Voriconazole],89.8%
18,COC(=O)C1=C(C)NC(C)=C(C(=O)OC)C1c1ccccc1[N+](=O)[O-] [Nifedipine],82.8%
19,Nc1ccc(O)c(C(=O)O)c1 [Mesalamine],92.4%
20,Clc1ccccc1CN1CCc2sccc2C1 [Ticlopidine hydrochloride],87.4%
21,CCN(CC)CCOC(=O)C1(c2ccc([N+](=O)[O-])cc2)CCCC1 [Nitrocaramiphen hydrochloride],105%
22,CO[C@@]1(NC(=O)C2SC(=C(C(N)=O)C(=O)O)S2)C(=O)N2C(C(=O)O)=C(CSc3nnnn3C)CS[C@@H]21 (stereo partly drawn) [Cefotetan],92.4%
23,CN(C)CCCN1c2ccccc2CCc2ccc(Cl)cc21 [Clomipramine hydrochloride],60.1%
24,Cc1cc(C(C)(C)CC(C)(C)C)ccc1OCCOCC[N+](C)(C)Cc1ccccc1 [Methyl benzethonium chloride],1.25%
25,Cc1cc(NC(=O)C2=C(O)c3ccccc3S(=O)(=O)N2C)no1 [Isoxicam],95.4%

row,Structure (SMILES),HCT116-GFP viability
1,C#C[C@]1(OC(C)=O)CC[C@H]2[C@@H]3CCC4=C[C@@H](OC(C)=O)CC[C@@H]4[C@H]3CC[C@@]21C [Ethynodiol diacetate],72.3%
2,Nc1ccc(S(=O)(=O)Nc2ncccn2)cc1 [Sulfadiazine],95.7%
3,CO[C@@]1(NC(=O)C(C(=O)O)c2ccc(O)cc2)C(=O)N2C(C(=O)O)=C(CSc3nnnn3C)CO[C@@H]21 (stereo partly drawn) [Moxalactam disodium salt],113%
4,C#C[C@]1(O)CC[C@H]2[C@@H]3CCC4=CC(=O)CC[C@@H]4[C@H]3CC[C@@]21C [Norethindrone],104%
5,CN(C)CCc1c[nH]c2ccc(C[C@H]3COC(=O)N3)cc12 [Zolmitriptan],98.9%
6,CN(C)CCC=C1c2ccccc2C=Cc2ccccc21 [Cyclobenzaprine hydrochloride],78.6%
7,NS(=O)(=O)c1cc2c(cc1Cl)NCNS2(=O)=O [Hydrochlorothiazide],102%
8,C[N+]1(C)CCC(=C(c2ccccc2)c2ccccc2)CC1 [Diphemanil methylsulfate],114%
9,CNNCc1ccc(C(=O)NC(C)C)cc1 [Procarbazine hydrochloride],86.3%
10,O=c1[nH]c(=O)n([C@H]2C[C@H](O)[C@@H](CO)O2)cc1F [Floxuridine],51.3%
11,COc1cc(C)c(/C=C/C(C)=C/C=C/C(C)=C/C(=O)O)c(C)c1C [Acitretin],105%
12,CC(C)OC(=O)CCC/C=C\C[C@@H]1[C@@H](CC[C@@H](O)CCc2ccccc2)[C@H](O)C[C@@H]1O [Latanoprost],99.4%
13,CC(=O)Oc1cc(C(C)C)c(OCCN(C)C)cc1C [Moxisylyte hydrochoride],95.9%
14,CC(c1cc2ccccc2s1)N(O)C(N)=O (stereo not drawn) [Zileuton],98.2%
15,C#C[C@]1(O)CC[C@H]2[C@@H]3[C@H](C)CC4=C(CCC(=O)C4)[C@H]3CC[C@@]21C [Tibolone],110%
16,COc1cc(C(=O)N2CCOCC2)cc(OC)c1OC [Trimetozine],105%
17,CC(=O)OCC(=O)[C@@]1(O)CC[C@H]2[C@@H]3CCC4=CC(=O)C=C[C@]4(C)[C@@]3(F)[C@@H](O)C[C@@]21C [Isoflupredone acetate],110%
18,CN(C)CCCOc1nn(Cc2ccccc2)c2ccccc12 [Benzydamine hydrochloride],95.1%
19,Nc1ccc(S(=O)(=O)Nc2ccc(Cl)nn2)cc1 [Sulfachloropyridazine],94.6%
20,COc1cc2nc(N3CCN(C(=O)C4CCCO4)CC3)nc(N)c2cc1OC (stereo not drawn) [Terazosin hydrochloride],106%
21,C[C@H]1[C@H](NC(=O)/C(=N\OC(C)(C)C(=O)O)c2csc(N)n2)C(=O)N1S(=O)(=O)O [Aztreonam],101%
22,CNCCC=C1c2ccccc2CCc2ccccc21 [Nortriptyline hydrochloride],73.1%
23,CCc1c2c(nc3ccc(OC(=O)N4CCC(N5CCCCC5)CC4)cc13)-c1cc3c(c(=O)n1C2)COC(=O)[C@]3(O)CC [Irinotecan hydrochloride trihydrate],15.7%
